This is an account of results in a collection of fitness landscapes (doi:10.1126/science.1257360).

Some of the results follow. A value given as a limit tells only on which side of the number the result lay.

First the molecules themselves.
B1: PhoQ; a variant is named by its letters at X, in order, P23837 (parent)
chain: MKKLLRLFFPLSLRVRFLLATAAVVLVLSLAYGMVALIGYSVSFDKTTFRLLRGESNLFYTLAKWENNKLHVELPENIDKQSPTMTLIYDENGQLLWAQRDVPWLMKMIQPDWLKSNGFHEIEADVNDTSLLLSGDHSIQQQLQEVREDDDDAEMTHSVAVNVYPATSRMPKLTIVVVDTIPVELKSSYMVWSWFIYVLSANLLLVIPLLWVAAWWSLRPIEALAKEVRELEEHNRELLNPATTRELTSLVRNLNRLLKSERERYDKYRTTLTDLTHSLKTPLXXLQXXLRSLRSEKMSVSDAEPVMLEQISRISQQIGYYLHRASMRGGTLLSRELHPVAPLLDNLTSALNKVYQRKGVNISLDISPEISFVGEQNDFVEVMGNVLDNACKYCLEFVEISARQTDEHLYIVVEDDGPGIPLSKREVIFDRGQRVDTLRPGQGVGLAVAREITEQYEGKIVAGESMLGGARMEVIFGRQHSAPKDE

The variants in the experiment derive from B1. The experiment in a line: enrichment ratio after two sorts for PhoP signalling (ratio (wild type AVST 3.29)); higher = more functional. To be noted: with PhoP (E. coli).
Regarding MTAK, the enrichment ratio is no more than 0.25.

Turning to DQVR, the enrichment ratio was no more than 0.25. The result for AIQF reads no more than 0.25. The result for EHML reads no more than 0.25.

As for DKNI, the enrichment ratio is no more than 0.25. The result for HPYD reads no more than 0.25; that for AYTF, no more than 0.25. The result for LKSQ reads no more than 0.25; that for PHWK, no more than 0.25; that for GAHC, no more than 0.25. The result for YATP reads no more than 0.25; that for LAVA, no more than 0.25. For LNII, the enrichment ratio was no more than 0.25. The result for SIQC reads 3.12; that for TDDA, no more than 0.25; that for TKCQ, 11.7.

For GTLQ, the enrichment ratio was found to be 15.2. The result for EVPH reads no more than 0.25; that for TDFP, no more than 0.25; that for IGPQ, no more than 0.25.

For the variant YTWQ, the enrichment ratio is no more than 0.25.

Regarding YGQM, the enrichment ratio was no more than 0.25. The result for FRGH reads no more than 0.25; that for WNTN, no more than 0.25; that for ISMT, no more than 0.25.

YFDI: the enrichment ratio was no more than 0.25. The result for FMCN reads no more than 0.25. The result for AFPA reads no more than 0.25. The result for ANIP reads no more than 0.25. Turning to HWQH, the enrichment ratio is no more than 0.25. On to WGLW, for which the enrichment ratio is no more than 0.25.

As for SCCP, the enrichment ratio is no more than 0.25. The result for SKRQ reads no more than 0.25.

TENA: the enrichment ratio came to 9.68. The result for ASIC reads 12.1; that for KVWI, no more than 0.25. For the variant WQRL, the enrichment ratio is no more than 0.25. The result for ELWN reads no more than 0.25. The result for NQEF reads no more than 0.25. The result for LRWD reads no more than 0.25; that for VMSC, no more than 0.25.

For GAYG, the enrichment ratio was no more than 0.25.

On to VIWP, for which the enrichment ratio is 0.312. The result for SQSC reads 11.7; that for IWQK, no more than 0.25. For the variant NGIM, the enrichment ratio was no more than 0.25. For TDTE, the enrichment ratio is no more than 0.25. The result for DDDM reads no more than 0.25; that for GRLD, no more than 0.25. The result for SGWC reads no more than 0.25. For PPWS, the enrichment ratio is no more than 0.25.

On to SEYH, for which the enrichment ratio was 1.88. The result for KITC reads no more than 0.25; that for LKHY, no more than 0.25; that for CSRV, no more than 0.25. The result for PTKF reads no more than 0.25.

Consider IMTW, for which the enrichment ratio is no more than 0.25. The result for HWAT reads no more than 0.25; that for PLND, no more than 0.25; that for PCNN, no more than 0.25. Regarding SRIF, the enrichment ratio was no more than 0.25. The result for EHVG reads no more than 0.25. As for WRYN, the enrichment ratio is no more than 0.25. The result for PLYT reads no more than 0.25; that for SMAG, 11.3. Take NYGQ: the enrichment ratio is no more than 0.25.

Turning to TIKI, the enrichment ratio was no more than 0.25. The result for KDVR reads no more than 0.25. The result for KRMG reads no more than 0.25; that for TSLR, 1.77. As for RCAM, the enrichment ratio is no more than 0.25. Consider QQEF, for which the enrichment ratio was no more than 0.25.

In the case of VYHP, the enrichment ratio was no more than 0.25. The result for IFPR reads no more than 0.25; that for QDVG, no more than 0.25; that for TWKM, no more than 0.25. The result for FRNH reads no more than 0.25; that for VTIC, no more than 0.25; that for PIVF, no more than 0.25. The result for NCDT reads no more than 0.25; that for HTFM, no more than 0.25; that for FTVQ, no more than 0.25. Regarding RFLP, the enrichment ratio was no more than 0.25. The result for MSYT reads 9.58. YNSK: the enrichment ratio was no more than 0.25. In the case of WPDS, the enrichment ratio is no more than 0.25.

As to QVMS, the enrichment ratio was no more than 0.25. The result for YVRK reads no more than 0.25.

For the variant DKPH, the enrichment ratio is no more than 0.25.

Consider VFAK, for which the enrichment ratio was no more than 0.25. AVGD: the enrichment ratio was no more than 0.25. The result for YKCH reads no more than 0.25; that for AEIM, 15.7; that for KYQA, no more than 0.25. The result for SRMF reads no more than 0.25. For the variant NCSI, the enrichment ratio was no more than 0.25.

For IWMF, the enrichment ratio is no more than 0.25. On to FDLG, for which the enrichment ratio was no more than 0.25.

Turning to NQSG, the enrichment ratio was no more than 0.25. The result for YNTD reads no more than 0.25; that for WNAE, no more than 0.25. The result for LAGN reads no more than 0.25.

Consider WEYD, for which the enrichment ratio is no more than 0.25.

Take GFRC: the enrichment ratio was no more than 0.25.

Regarding HHYT, the enrichment ratio was no more than 0.25. The result for FSDK reads no more than 0.25; that for AIMC, no more than 0.25. In the case of VTQM, the enrichment ratio was no more than 0.25. As for LNFG, the enrichment ratio is no more than 0.25. The result for FSYC reads no more than 0.25; that for KYWW, no more than 0.25. The result for KAEP reads no more than 0.25; that for CLIL, no more than 0.25.

In the case of YEHI, the enrichment ratio is no more than 0.25. The result for DHFR reads no more than 0.25; that for PNSH, no more than 0.25; that for WNIF, no more than 0.25.

Take RKYC: the enrichment ratio is no more than 0.25.

As for SHGA, the enrichment ratio is no more than 0.25. The result for NMVC reads no more than 0.25. The result for FDIE reads no more than 0.25; that for FENH, no more than 0.25. As for CFKV, the enrichment ratio was no more than 0.25.

For GSVW, the enrichment ratio was no more than 0.25. The result for ESCN reads no more than 0.25; that for RHLA, no more than 0.25. The result for EQCN reads no more than 0.25; that for SKKC, no more than 0.25.

In the case of LAPR, the enrichment ratio is no more than 0.25. As for WKWM, the enrichment ratio was no more than 0.25. The result for RRIV reads no more than 0.25. The result for MYQS reads no more than 0.25; that for KAQL, 1.07; that for FEQA, no more than 0.25.

Take VEQT: the enrichment ratio is no more than 0.25. Regarding YGKW, the enrichment ratio was no more than 0.25. The result for APGF reads no more than 0.25.

In the case of PPNQ, the enrichment ratio is no more than 0.25.

With EVRF, the enrichment ratio is no more than 0.25. The result for STFN reads no more than 0.25. The result for QQGP reads no more than 0.25; that for HDCR, no more than 0.25; that for LPNG, no more than 0.25. Regarding KSSY, the enrichment ratio is no more than 0.25.

Take EAKM: the enrichment ratio is no more than 0.25. The result for SYMT reads 0.323; that for WLVT, no more than 0.25. The result for AHCC reads no more than 0.25; that for EETP, no more than 0.25. The result for SMDL reads no more than 0.25; that for PLVR, no more than 0.25; that for KTVR, no more than 0.25. For the variant LDFL, the enrichment ratio was no more than 0.25. For VKVQ, the enrichment ratio is no more than 0.25.

On to RAQI, for which the enrichment ratio is no more than 0.25. The result for RHTC reads no more than 0.25; that for RHCQ, no more than 0.25; that for RFTQ, no more than 0.25. The result for WISP reads no more than 0.25.

Turning to SWDL, the enrichment ratio is no more than 0.25. On to KPHD, for which the enrichment ratio is no more than 0.25. The result for GRII reads no more than 0.25; that for FEAP, no more than 0.25; that for IQMG, no more than 0.25. The result for MISL reads 6.62; that for TGFD, no more than 0.25; that for RRGS, no more than 0.25. The result for YIKS reads no more than 0.25; that for MDVN, no more than 0.25; that for TVYL, 2.97.

Turning to DHQF, the enrichment ratio was no more than 0.25. The result for HSQT reads no more than 0.25.

Consider MIDP, for which the enrichment ratio was no more than 0.25.

As to WGPS, the enrichment ratio is no more than 0.25. The result for FYLT reads no more than 0.25.

As for YYHF, the enrichment ratio is no more than 0.25. The result for DKPW reads no more than 0.25; that for IGAT, no more than 0.25; that for RAMG, no more than 0.25. For CRGL, the enrichment ratio was no more than 0.25. As to KACV, the enrichment ratio was no more than 0.25. In the case of AWMI, the enrichment ratio is no more than 0.25. The result for IDQT reads no more than 0.25; that for IVAK, no more than 0.25. The result for EFSG reads no more than 0.25; that for DFAP, no more than 0.25.

As for FRYM, the enrichment ratio was no more than 0.25. The result for AGRR reads no more than 0.25; that for NAIQ, no more than 0.25; that for SCTF, 9.43. The result for IPTL reads no more than 0.25; that for GVIY, no more than 0.25. The result for TSNS reads 12.8. For the variant QAVD, the enrichment ratio is no more than 0.25. The result for WQTI reads no more than 0.25.
